# Data taken from the supplement of paper PMC9588766.
# Counter-ions that a name gives are not always drawn. Whole data set: some 1,900 compounds, median “cell viability of compound + 1 nM pemigatinib relative to pemigatinib-only (DMSO) wells” near 0.95, cut for the lowest 2% near 0.22. The list shows a part of the results.
# Tested on: PDC-DUC18828
# Assay: cell viability of compound + 1 nM pemigatinib relative to pemigatinib-only (DMSO) wells (fraction); PDC-DUC18828 is a patient-derived cholangiocarcinoma cell line; higher = less growth inhibition
# Details: first compound 1 µM; pemigatinib concentration 1 nM; 72 h
# Description: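 Selleck Bioactive library screen in the patient-derived FGFR2 fusion-positive ICC cell line PDC-DUC18828 (500 cells/well). Each compound was tested at 1 uM with 1 nM pemigatinib, in triplicate, for 72 h. Viability was read by CellTiter-Glo and normalised to plate DMSO controls. Value is the paper's averaged normalised viability.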
row,Structure (SMILES),cell viability
1,CC(=O)OCC(=O)[C@@]1(O)CC[C@H]2[C@@H]3CCC4=CC(=O)CC[C@]4(C)[C@H]3C(=O)C[C@@]21C [Cortisone acetate] + CCN1C(=O)N(c2c(F)c(OC)cc(OC)c2F)Cc2cnc3[nH]c(CN4CCOCC4)cc3c21 [pemigatinib],0.864
2,CNS(=O)(=O)Nc1nccc(Cc2c(C)c3ccc(Oc4ncccn4)cc3oc2=O)c1F + CCN1C(=O)N(c2c(F)c(OC)cc(OC)c2F)Cc2cnc3[nH]c(CN4CCOCC4)cc3c21 [pemigatinib],0.713
3,OC[C@@H](O)[C@@H](O)[C@H](O)[C@@H](O)CO [Sorbitol] + CCN1C(=O)N(c2c(F)c(OC)cc(OC)c2F)Cc2cnc3[nH]c(CN4CCOCC4)cc3c21 [pemigatinib],0.89
4,CC(C)(C)c1cc(C(=O)C(C#N)=NNc2cccc(Cl)c2)no1 + CCN1C(=O)N(c2c(F)c(OC)cc(OC)c2F)Cc2cnc3[nH]c(CN4CCOCC4)cc3c21 [pemigatinib],1.02
5,OCc1ccc(O[C@@H]2O[C@H](CO)[C@@H](O)[C@H](O)[C@H]2O)cc1 [Gastrodin] + CCN1C(=O)N(c2c(F)c(OC)cc(OC)c2F)Cc2cnc3[nH]c(CN4CCOCC4)cc3c21 [pemigatinib],0.957
6,O=C(NC(NC(=S)Nc1ccc(F)c([N+](=O)[O-])c1)C(Cl)(Cl)Cl)C(c1ccccc1)c1ccccc1 (stereo not given) + CCN1C(=O)N(c2c(F)c(OC)cc(OC)c2F)Cc2cnc3[nH]c(CN4CCOCC4)cc3c21 [pemigatinib],0.9
7,CCc1cc(C(N)=S)ccn1 [Ethionamide] + CCN1C(=O)N(c2c(F)c(OC)cc(OC)c2F)Cc2cnc3[nH]c(CN4CCOCC4)cc3c21 [pemigatinib],0.979
8,Cc1cn([C@@H]2C[C@@H](O)[C@H](CO)O2)c(=O)[nH]c1=O [Telbivudine] + CCN1C(=O)N(c2c(F)c(OC)cc(OC)c2F)Cc2cnc3[nH]c(CN4CCOCC4)cc3c21 [pemigatinib],0.954
9,Cc1cc(NC(=O)c2cccc(NC(=O)/C=C/CN(C)C)c2)ccc1Nc1nccc(-c2cccnc2)n1 + CCN1C(=O)N(c2c(F)c(OC)cc(OC)c2F)Cc2cnc3[nH]c(CN4CCOCC4)cc3c21 [pemigatinib],0.873
10,Cc1cccc(Nc2cc(Cl)nc(SCC(=O)O)n2)c1C + CCN1C(=O)N(c2c(F)c(OC)cc(OC)c2F)Cc2cnc3[nH]c(CN4CCOCC4)cc3c21 [pemigatinib],0.981
11,O=C(N/N=C/c1ccc([N+](=O)[O-])o1)c1ccc(O)cc1 [Nifuroxazide] + CCN1C(=O)N(c2c(F)c(OC)cc(OC)c2F)Cc2cnc3[nH]c(CN4CCOCC4)cc3c21 [pemigatinib],0.972
12,CCC[C@H](NC(=O)/C(C#N)=C/c1cccc(Br)n1)c1ccccc1 [Degrasyn (WP1130)] + CCN1C(=O)N(c2c(F)c(OC)cc(OC)c2F)Cc2cnc3[nH]c(CN4CCOCC4)cc3c21 [pemigatinib],0.857
13,CCOC(=O)NCCCC(=O)NCCc1ccccc1 + CCN1C(=O)N(c2c(F)c(OC)cc(OC)c2F)Cc2cnc3[nH]c(CN4CCOCC4)cc3c21 [pemigatinib],0.972
14,C=C1/C(=C\C=C2/CCC[C@]3(C)[C@@H]([C@H](C)CCCC(C)(C)O)CC[C@@H]23)C[C@@H](O)C[C@@H]1O [Calcitriol] + CCN1C(=O)N(c2c(F)c(OC)cc(OC)c2F)Cc2cnc3[nH]c(CN4CCOCC4)cc3c21 [pemigatinib],0.941
15,CCc1c2c(nc3ccc(OC(=O)N4CCC(N5CCCCC5)CC4)cc13)-c1cc3c(c(=O)n1C2)COC(=O)[C@]3(O)CC [Irinotecan HCl Trihydrate] + CCN1C(=O)N(c2c(F)c(OC)cc(OC)c2F)Cc2cnc3[nH]c(CN4CCOCC4)cc3c21 [pemigatinib],0.501
16,CCc1c2c(nc3ccc(OC(=O)N4CCC(N5CCCCC5)CC4)cc13)-c1cc3c(c(=O)n1C2)COC(=O)[C@]3(O)CC [Irinotecan] + CCN1C(=O)N(c2c(F)c(OC)cc(OC)c2F)Cc2cnc3[nH]c(CN4CCOCC4)cc3c21 [pemigatinib],0.353
17,C[C@H]1[C@H](NC(=O)/C(=N\OC(C)(C)C(=O)O)c2csc(N)n2)C(=O)N1S(=O)(=O)O [Aztreonam] + CCN1C(=O)N(c2c(F)c(OC)cc(OC)c2F)Cc2cnc3[nH]c(CN4CCOCC4)cc3c21 [pemigatinib],0.954
18,COC(=O)c1ccc2c(c1)[nH]c1ncnc(NCCCN3CCCCC3)c12 + CCN1C(=O)N(c2c(F)c(OC)cc(OC)c2F)Cc2cnc3[nH]c(CN4CCOCC4)cc3c21 [pemigatinib],0.929

row,Structure (SMILES),cell viability
1,OC[C@H]1O[C@@H](OCCc2ccc(O)cc2)[C@H](O)[C@@H](O)[C@@H]1O [Salidroside] + CCN1C(=O)N(c2c(F)c(OC)cc(OC)c2F)Cc2cnc3[nH]c(CN4CCOCC4)cc3c21 [pemigatinib],0.866
2,CC(C)CN(C[C@@H](O)[C@H](Cc1ccccc1)NC(=O)O[C@H]1CCOC1)S(=O)(=O)c1ccc(N)cc1 [Amprenavir] + CCN1C(=O)N(c2c(F)c(OC)cc(OC)c2F)Cc2cnc3[nH]c(CN4CCOCC4)cc3c21 [pemigatinib],0.988
3,CCC1=C[C@@H]2CN(C1)Cc1c([nH]c3ccccc13)[C@@](C(=O)OC)(c1cc3c(cc1OC)N(C)[C@H]1[C@@](O)(C(=O)OC)[C@H](OC(C)=O)[C@]4(CC)C=CCN5CC[C@]31[C@@H]54)C2 [Vinorelbine Tartrate] + CCN1C(=O)N(c2c(F)c(OC)cc(OC)c2F)Cc2cnc3[nH]c(CN4CCOCC4)cc3c21 [pemigatinib],0.249
4,CNC(=C[N+](=O)[O-])NCCSCc1csc(CN(C)C)n1 [Nizatidine] + CCN1C(=O)N(c2c(F)c(OC)cc(OC)c2F)Cc2cnc3[nH]c(CN4CCOCC4)cc3c21 [pemigatinib],0.937
5,CS(=O)(=O)Nc1ccc([N+](=O)[O-])cc1Oc1ccccc1 [Nimesulide] + CCN1C(=O)N(c2c(F)c(OC)cc(OC)c2F)Cc2cnc3[nH]c(CN4CCOCC4)cc3c21 [pemigatinib],1.04
6,C=CC(=O)Nc1cccc(Nc2nc(Nc3ccc(NC4CN(CCF)C4)cc3OC)ncc2C(F)(F)F)c1 + CCN1C(=O)N(c2c(F)c(OC)cc(OC)c2F)Cc2cnc3[nH]c(CN4CCOCC4)cc3c21 [pemigatinib],0.811
7,c1ccc2c(Oc3nc(Nc4ccc(N5CCOCC5)cc4)c4ncn(C5CCCCC5)c4n3)cccc2c1 [Purmorphamine] + CCN1C(=O)N(c2c(F)c(OC)cc(OC)c2F)Cc2cnc3[nH]c(CN4CCOCC4)cc3c21 [pemigatinib],0.897
8,C[C@]12C=CC(=O)C=C1CC[C@@H]1[C@@H]2C(=O)C[C@@]2(C)[C@H]1CC[C@]2(O)C(=O)CO [Prednisone] + CCN1C(=O)N(c2c(F)c(OC)cc(OC)c2F)Cc2cnc3[nH]c(CN4CCOCC4)cc3c21 [pemigatinib],1
9,CCOC(=O)CCC(=O)O[C@H]1[C@H](O[C@@H]2[C@@H](C)[C@H](O[C@H]3C[C@@](C)(OC)[C@@H](O)[C@H](C)O3)[C@@H](C)C(=O)O[C@H](CC)[C@@](C)(O)[C@H](O)[C@@H](C)C(=O)[C@H](C)C[C@@]2(C)O)O[C@H](C)C[C@@H]1N(C)C [Erythromycin Ethylsuccinate] + CCN1C(=O)N(c2c(F)c(OC)cc(OC)c2F)Cc2cnc3[nH]c(CN4CCOCC4)cc3c21 [pemigatinib],0.985
10,COc1cc(NC(=O)c2ccc(-c3ccc(Cl)cc3)o2)cc(OC)c1 + CCN1C(=O)N(c2c(F)c(OC)cc(OC)c2F)Cc2cnc3[nH]c(CN4CCOCC4)cc3c21 [pemigatinib],1.01
11,C[C@@H]1CN(c2c(F)c(N)c3c(=O)c(C(=O)O)cn(C4CC4)c3c2F)C[C@H](C)N1 [Sparfloxacin] + CCN1C(=O)N(c2c(F)c(OC)cc(OC)c2F)Cc2cnc3[nH]c(CN4CCOCC4)cc3c21 [pemigatinib],1
12,CCn1cc(C(=O)O)c(=O)c2cc(F)c(N3CCN(C)CC3)cc21 [Pefloxacin Mesylate] + CCN1C(=O)N(c2c(F)c(OC)cc(OC)c2F)Cc2cnc3[nH]c(CN4CCOCC4)cc3c21 [pemigatinib],0.964
13,CCn1cc(C(=O)O)c(=O)c2cc(F)c(N3CCN(C)CC3)cc21 [Pefloxacin Mesylate Dihydrate] + CCN1C(=O)N(c2c(F)c(OC)cc(OC)c2F)Cc2cnc3[nH]c(CN4CCOCC4)cc3c21 [pemigatinib],0.997
14,CCOC(=O)c1ccc(N2NC(=O)C(=Cc3ccc([N+](=O)[O-])o3)C2=O)cc1 + CCN1C(=O)N(c2c(F)c(OC)cc(OC)c2F)Cc2cnc3[nH]c(CN4CCOCC4)cc3c21 [pemigatinib],0.941
15,CCNC(=O)c1noc(-c2cc(Cl)c(O)cc2O)c1-c1ccc(OC)cc1 + CCN1C(=O)N(c2c(F)c(OC)cc(OC)c2F)Cc2cnc3[nH]c(CN4CCOCC4)cc3c21 [pemigatinib],0.3
16,CCN[C@H]1CN(CCCOC)S(=O)(=O)c2sc(S(N)(=O)=O)cc21 [Brinzolamide] + CCN1C(=O)N(c2c(F)c(OC)cc(OC)c2F)Cc2cnc3[nH]c(CN4CCOCC4)cc3c21 [pemigatinib],0.872
17,CC(C)c1c(C(=O)Nc2ccccc2)c(-c2ccccc2)c(-c2ccc(F)cc2)n1CC[C@@H](O)C[C@@H](O)CC(=O)O [Atorvastatin Calcium] + CCN1C(=O)N(c2c(F)c(OC)cc(OC)c2F)Cc2cnc3[nH]c(CN4CCOCC4)cc3c21 [pemigatinib],1.05
